Results as given in the supplement of paper PMC4967469.
Lines with a small IC50 respond at low doses; a limit (>, <) means that the fit lies beyond the doses tested. For AUC the same curve is integrated over the 256-fold range of doses and scaled to a fraction; the more sensitive the line, the further below 1. Where the top dose is marked as inferred, it was derived from the fitted curves, not read from the paper.

Experiments:
Assay in all cases: Viability of human cancer cell lines after 72 h of drug (GDSC screen)
[1] = compound: Cn1cncc1[C@@](N)(c1ccc(Cl)cc1)c1ccc2c(c1)c(-c1cccc(Cl)c1)cc(=O)n2C [Tipifarnib]; conditions: top dose 16 µM; top dose inferred
Experimental: (§1)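 Human cancer cell lines in 384-well plates, medium with 10% serum, drug for 72 h over a 256-fold dose range (nine 2-fold or five 4-fold steps up to the top dose). Adherent lines were fixed and stained with the nucleic acid dye Syto60, suspension lines read with resazurin; signal relative to control wells, capped at 0 and 100%. One two-parameter sigmoid per drug and line, fitted in a mixed model over all curves with the slope shared within a line.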

[2] = compound: CCc1cc(Nc2nccc(-c3c(-c4ccc(OC)c(C(=O)Nc5c(F)cccc5F)c4)nc4ccccn34)n2)c(OC)cc1N1CCC(N2CCN(S(C)(=O)=O)CC2)CC1 [GSK-1904529A]; conditions: top dose 1.024 µM; top dose inferred
Experimental: as §1

[3] = compound: CCN1CCN(Cc2ccc(NC(=O)c3ccc(C)c(Oc4ccnc5[nH]ccc45)c3)cc2C(F)(F)F)CC1 [NG-25]; conditions: top dose 10.24 µM; top dose inferred
Experimental: as §1

[4] = compound: COc1ccccc1S(=O)(=O)Nc1ccc2c(c1)CN(C)C(=O)N2 [PFI-1]; conditions: top dose 10 µM; top dose inferred
Experimental: as §1

Cell Line	AUC [1]	IC50 [1] [µM]	AUC [2]	IC50 [2] [µM]	AUC [3]	IC50 [3] [µM]	AUC [4]	IC50 [4] [µM]
ME-180 (cervix, adherent)	0.746	5.26	0.965	> 1.02	0.874	> 10.2	0.84	7.32
Hs683 (glioma, adherent)	0.625	2.22	0.974	> 1.02	0.955	> 10.2	0.938	> 10
HCC2998 (large intestine, adherent)	0.393	0.512	0.987	> 1.02	0.947	> 10.2	0.832	6.12
CFPAC-1 (pancreas, adherent)	0.648	2.74	0.979	> 1.02	0.954	> 10.2	0.902	> 10
NCI-H1623 (lung adenocarcinoma, adherent)	0.907	> 16	0.985	> 1.02	0.926	> 10.2	0.981	> 10
HCC1500 (breast, adherent)	0.757	5.72	0.987	> 1.02	0.944	> 10.2	0.89	> 10
HT-29 (large intestine, adherent)	0.459	0.774	0.975	> 1.02	0.85	7.71	0.83	6.25
CAPAN-1 (pancreas, adherent)	0.855	15	0.984	> 1.02	0.972	> 10.2	0.943	> 10
RERF-LC-MS (lung adenocarcinoma, adherent)	0.97	> 16	0.983	> 1.02	0.983	> 10.2	0.869	9.64
SNG-M (endometrium, adherent)	0.286	0.253	0.959	> 1.02	0.767	3.73	0.719	2.57
H4 (glioma, adherent)	0.524	1.16	0.981	> 1.02	0.952	> 10.2	0.752	3.28
HCC-15 (lung squamous cell carcinoma, adherent)	0.685	3.84	0.972	> 1.02	0.932	> 10.2	0.838	9.66
BICR22 (head and neck, adherent)	0.813	10.3	0.972	> 1.02	0.953	> 10.2	0.879	> 10
NCI-H1915 (large cell lung carcinoma, adherent)	0.574	1.6	0.988	> 1.02	0.905	> 10.2	0.95	> 10
PCI-15A (head and neck, adherent)	0.818	9.11	0.986	> 1.02	0.983	> 10.2	0.94	> 10
HSC-3 (head and neck, adherent)	0.674	2.82	0.914	> 1.02	0.909	> 10.2	0.732	2.55
42-MG-BA (glioma, adherent)	0.87	> 16	0.96	> 1.02	0.866	10.2	0.846	8.07
H2591 (mesothelioma, adherent)	0.741	6.15	0.974	> 1.02	0.851	> 10.2	0.907	> 10
D-542MG (glioma, adherent)	0.624	2.38	0.959	> 1.02	0.963	> 10.2	0.893	> 10
SK-MEL-28 (melanoma, adherent)	0.876	15.4	0.977	> 1.02	0.893	> 10.2	0.805	4.94
HCC70 (breast, adherent)	0.514	1.09	0.987	> 1.02	0.812	5.38	0.969	> 10

Cell Line	AUC [1]	IC50 [1] [µM]	AUC [2]	IC50 [2] [µM]	AUC [3]	IC50 [3] [µM]	AUC [4]	IC50 [4] [µM]
MDA-MB-361 (breast, adherent)	0.609	1.99	0.981	> 1.02	0.958	> 10.2	0.863	8.53
MDA-MB-231 (breast, adherent)	0.759	5.91	0.944	> 1.02	0.971	> 10.2	0.815	5.91
KMH-2 (thyroid, adherent)	0.423	0.633	0.971	> 1.02	0.974	> 10.2	0.777	3.58
GCT (soft tissue, adherent)	0.83	9.1	0.964	> 1.02	0.989	> 10.2	0.859	7.38
SNU-182 (liver, adherent)	0.806	8.6	0.977	> 1.02	0.917	> 10.2	0.927	> 10
PANC-03-27 (pancreas, adherent)	0.714	3.84	0.988	> 1.02	0.895	> 10.2	0.921	> 10
SW620 (large intestine, adherent)	0.409	0.58	0.989	> 1.02	0.959	> 10.2	0.927	> 10
SW626 (ovary, adherent)	0.533	1.25	0.966	> 1.02	0.935	> 10.2	0.812	6.65
SW900 (lung squamous cell carcinoma, adherent)	0.884	> 16	0.979	> 1.02	0.945	> 10.2	0.903	> 10
HCC1569 (breast, adherent)	0.619	2.37	0.951	> 1.02	0.946	> 10.2	0.852	> 10
NCI-H2122 (lung adenocarcinoma, adherent)	0.271	0.235	0.986	> 1.02	0.988	> 10.2	0.973	> 10
YAPC (pancreas, adherent)	0.899	> 16	0.985	> 1.02	0.982	> 10.2	0.983	> 10
HT-1080 (fibrosarcoma, adherent)	0.737	4.36	0.982	> 1.02	0.886	9.27	0.956	> 10
NCI-H596 (lung adenocarcinoma, adherent)	0.586	1.84	0.98	> 1.02	0.962	> 10.2	0.876	> 10
EFM-192A (breast, adherent)	0.411	0.553	0.909	> 1.02	0.952	> 10.2	0.905	> 10
LCLC-97TM1 (large cell lung carcinoma, adherent)	0.605	2	0.976	> 1.02	0.831	7.39	0.864	> 10
LS-180 (large intestine, adherent)	0.39	0.475	0.98	> 1.02	0.943	> 10.2	0.884	> 10
SW1088 (glioma, adherent)	0.803	10.9	0.977	> 1.02	0.955	> 10.2	0.88	> 10
C32 (melanoma, adherent)	0.974	> 16	0.986	> 1.02	0.917	> 10.2	0.918	> 10
KYSE-140 (oesophagus, adherent)	0.469	0.814	0.981	> 1.02	0.757	3.95	0.934	> 10
MDA-MB-157 (breast, adherent)	0.799	7.92	0.979	> 1.02	0.968	> 10.2	0.894	> 10

Cell Line	AUC [1]	IC50 [1] [µM]	AUC [2]	IC50 [2] [µM]	AUC [3]	IC50 [3] [µM]	AUC [4]	IC50 [4] [µM]
SW156 (kidney, adherent)	0.77	6.75	0.958	> 1.02	0.918	> 10.2	0.927	> 10
SW1417 (large intestine, adherent)	0.918	> 16	0.986	> 1.02	0.944	> 10.2	0.956	> 10
HDQ-P1 (breast, adherent)	0.77	7.29	0.983	> 1.02	0.982	> 10.2	0.959	> 10
UACC-893 (breast, adherent)	0.746	6.59	0.971	> 1.02	0.838	> 10.2	0.962	> 10
DAN-G (pancreas, adherent)	0.963	> 16	0.991	> 1.02	0.988	> 10.2	0.967	> 10
Saos-2 (osteosarcoma, adherent)	0.844	> 16	0.975	> 1.02	0.981	> 10.2	0.911	> 10
NCI-H1299 (large cell lung carcinoma, adherent)	0.429	0.61	0.908	> 1.02	0.913	> 10.2	0.893	> 10
CAL-33 (head and neck, adherent)	0.696	3.56	0.986	> 1.02	0.948	> 10.2	0.878	> 10
PC-3 (prostate, adherent)	0.814	11.2	0.936	> 1.02	0.935	> 10.2	0.831	8.35
8305C (thyroid, adherent)	0.545	1.38	0.928	> 1.02	0.958	> 10.2	0.855	> 10
SK-OV-3 (ovary, adherent)	0.549	1.4	0.951	> 1.02	0.869	> 10.2	0.857	> 10
CP50-MEL-B (melanoma, adherent)	0.787	6.87	0.98	> 1.02	0.842	7.1	0.856	7.91
IGR-37 (melanoma, adherent)	0.653	2.54	0.975	> 1.02	0.822	5.3	0.827	5.39
EFO-27 (ovary, adherent)	0.474	0.834	0.931	> 1.02	0.84	9.81	0.96	> 10
CAMA-1 (breast, adherent)	0.875	> 16	0.955	> 1.02	0.93	> 10.2	0.896	> 10
SK-MEL-24 (melanoma, adherent)	0.601	2.02	0.975	> 1.02	0.78	5.17	0.898	> 10
HPAC (pancreas, adherent)	0.316	0.245	0.973	> 1.02	0.777	5.97	0.954	> 10
COLO-679 (melanoma, adherent)	0.491	0.943	0.968	> 1.02	0.984	> 10.2	0.859	> 10
MDA-MB-175-VII (breast, adherent)	0.919	> 16	0.985	> 1.02	0.986	> 10.2	0.986	> 10
